Publication PMC12820563
Some of the results follow. The list includes weakly bound sequences.

Each sequence was assayed against T1, MBP-FoxP3dN (UniProt Q99JB6) (assay: PD-seq (MBP pull-down with sequencing)). Conditions: 20 mM Tris-HCl pH 7.5, 100 mM NaCl, 1.5 mM MgCl2, 0.4 uM protein, 0.1 uM dsDNA library, 30 min, room temperature, amylose pull-down; high values mean tight binding; double strand, one strand shown.
T1 sequence: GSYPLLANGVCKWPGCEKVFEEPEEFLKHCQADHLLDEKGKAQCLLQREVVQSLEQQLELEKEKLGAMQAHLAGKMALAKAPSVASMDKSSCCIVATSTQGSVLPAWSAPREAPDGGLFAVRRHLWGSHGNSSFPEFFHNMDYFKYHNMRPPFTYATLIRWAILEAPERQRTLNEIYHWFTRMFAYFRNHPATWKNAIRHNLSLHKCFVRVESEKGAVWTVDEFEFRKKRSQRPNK
For “GATGATTGTTCTCCCAGCTGATGAATTTTAAGCGTCGAGTAAACAAATTTTCCTAATCTTTCTGTTCAAGCGCCATCTAC”, the binding signal (RPM ratio (pull-down/input)) was 0.485.
“GATGATTGTTCTCCCAGCTGATGAATTTATAGAATCGAGTAAACAAATTTTCCTAATCTTTCTGTTCAAGCGCCATCTAC” showed a binding signal (RPM ratio (pull-down/input)) of 0.337.
“GATGATTGTTCTCCCAGCTGATGAATTGTACGACTCGAGTAAACAAATTTTCCTAATCTTTCTGTTCAAGCGCCATCTAC” was tested, and the binding signal (RPM ratio (pull-down/input)) was 0.357.
“GATGATTGTTCTCCCAGCTGATGAATTCTAGCAATCGAGTAAACAAATTTTCCTAATCTTTCTGTTCAAGCGCCATCTAC” was tested, and the binding signal (RPM ratio (pull-down/input)) was 2.2.
“GATGATTGTTCTCCCAGCTGATGAATTCGCGTCATCGAGTAAACAAATTTTCCTAATCTTTCTGTTCAAGCGCCATCTAC” showed a binding signal (RPM ratio (pull-down/input)) of 1.24.
“GATGATTGTTCTCCCAGCTGATGAATTTGGGTATTCGAGTAAACAAATTTTCCTAATCTTTCTGTTCAAGCGCCATCTAC” showed a binding signal (RPM ratio (pull-down/input)) of 1.37.
“GATGATTGTTCTCCCAGCTGATGAATTATGATTGTCGAGTAAACAAATTTTCCTAATCTTTCTGTTCAAGCGCCATCTAC” gave a binding signal (RPM ratio (pull-down/input)) of 4.27.
Work on “GATGATTGTTCTCCCAGCTGATGAATTTATCAGTTCGAGTAAACAAATTTTCCTAATCTTTCTGTTCAAGCGCCATCTAC” yielded a binding signal (RPM ratio (pull-down/input)) of 1.12.
With “GATGATTGTTCTCCCAGCTGATGAATTGGCTGAGTCGAGTAAACAAATTTTCCTAATCTTTCTGTTCAAGCGCCATCTAC” the binding signal (RPM ratio (pull-down/input)) was 0.244.
“GATGATTGTTCTCCCAGCTGATGAATTTTAACACTCGAGTAAACAAATTTTCCTAATCTTTCTGTTCAAGCGCCATCTAC” gave a binding signal (RPM ratio (pull-down/input)) of 0.669.
For “GATGATTGTTCTCCCAGCTGATGAATTAGGCGCGTCGAGTAAACAAATTTTCCTAATCTTTCTGTTCAAGCGCCATCTAC”, the binding signal (RPM ratio (pull-down/input)) was 1.45.
Sequence “GATGATTGTTCTCCCAGCTGATGAATTCCTAACCTCGAGTAAACAAATTTTCCTAATCTTTCTGTTCAAGCGCCATCTAC” has a binding signal (RPM ratio (pull-down/input)) of 0.249.
“GATGATTGTTCTCCCAGCTGATGAATTAGTCTAATCGAGTAAACAAATTTTCCTAATCTTTCTGTTCAAGCGCCATCTAC” showed a binding signal (RPM ratio (pull-down/input)) of 0.582.
With “GATGATTGTTCTCCCAGCTGATGAATTTCCATGCTCGAGTAAACAAATTTTCCTAATCTTTCTGTTCAAGCGCCATCTAC” the binding signal (RPM ratio (pull-down/input)) was 0.361.
“GATGATTGTTCTCCCAGCTGATGAATTATGCAAATCGAGTAAACAAATTTTCCTAATCTTTCTGTTCAAGCGCCATCTAC” was tested, and the binding signal (RPM ratio (pull-down/input)) was 1.16.
“GATGATTGTTCTCCCAGCTGATGAATTGGCAACGTCGAGTAAACAAATTTTCCTAATCTTTCTGTTCAAGCGCCATCTAC” gave a binding signal (RPM ratio (pull-down/input)) of 0.907.
“GATGATTGTTCTCCCAGCTGATGAATTTGCGCTTTCGAGTAAACAAATTTTCCTAATCTTTCTGTTCAAGCGCCATCTAC” gave a binding signal (RPM ratio (pull-down/input)) of 1.8.
“GATGATTGTTCTCCCAGCTGATGAATTTTGGAAATCGAGTAAACAAATTTTCCTAATCTTTCTGTTCAAGCGCCATCTAC” showed a binding signal (RPM ratio (pull-down/input)) of 0.335.
In the case of “GATGATTGTTCTCCCAGCTGATGAATTAGACAAATCGAGTAAACAAATTTTCCTAATCTTTCTGTTCAAGCGCCATCTAC”, the binding signal (RPM ratio (pull-down/input)) is reported as 0.417.
Sequence “GATGATTGTTCTCCCAGCTGATGAATTCTCTAGCTCGAGTAAACAAATTTTCCTAATCTTTCTGTTCAAGCGCCATCTAC” has a binding signal (RPM ratio (pull-down/input)) of 0.209.
“GATGATTGTTCTCCCAGCTGATGAATTGCGCTGCTCGAGTAAACAAATTTTCCTAATCTTTCTGTTCAAGCGCCATCTAC” showed a binding signal (RPM ratio (pull-down/input)) of 1.14.
Work on “GATGATTGTTCTCCCAGCTGATGAATTCTGTATCTCGAGTAAACAAATTTTCCTAATCTTTCTGTTCAAGCGCCATCTAC” yielded a binding signal (RPM ratio (pull-down/input)) of 4.93.
“GATGATTGTTCTCCCAGCTGATGAATTGAGTGACTCGAGTAAACAAATTTTCCTAATCTTTCTGTTCAAGCGCCATCTAC” showed a binding signal (RPM ratio (pull-down/input)) of 0.823.
“GATGATTGTTCTCCCAGCTGATGAATTGGTTAGTTCGAGTAAACAAATTTTCCTAATCTTTCTGTTCAAGCGCCATCTAC” showed a binding signal (RPM ratio (pull-down/input)) of 2.42.
For “GATGATTGTTCTCCCAGCTGATGAATTCTCTACGTCGAGTAAACAAATTTTCCTAATCTTTCTGTTCAAGCGCCATCTAC”, the binding signal (RPM ratio (pull-down/input)) was 0.263.
“GATGATTGTTCTCCCAGCTGATGAATTTAGTAGGTCGAGTAAACAAATTTTCCTAATCTTTCTGTTCAAGCGCCATCTAC” was tested, and the binding signal (RPM ratio (pull-down/input)) was 0.704.
Sequence “GATGATTGTTCTCCCAGCTGATGAATTATAACTCTCGAGTAAACAAATTTTCCTAATCTTTCTGTTCAAGCGCCATCTAC” has a binding signal (RPM ratio (pull-down/input)) of 0.598.
In the case of “GATGATTGTTCTCCCAGCTGATGAATTTCTTCGGTCGAGTAAACAAATTTTCCTAATCTTTCTGTTCAAGCGCCATCTAC”, the binding signal (RPM ratio (pull-down/input)) is reported as 0.18.
Sequence “GATGATTGTTCTCCCAGCTGATGAATTGGACCGGTCGAGTAAACAAATTTTCCTAATCTTTCTGTTCAAGCGCCATCTAC” has a binding signal (RPM ratio (pull-down/input)) of 0.204.
For “GATGATTGTTCTCCCAGCTGATGAATTCAGTAGATCGAGTAAACAAATTTTCCTAATCTTTCTGTTCAAGCGCCATCTAC”, the binding signal (RPM ratio (pull-down/input)) was 0.408.
For “GATGATTGTTCTCCCAGCTGATGAATTAGGACTGTCGAGTAAACAAATTTTCCTAATCTTTCTGTTCAAGCGCCATCTAC”, the binding signal (RPM ratio (pull-down/input)) was 0.681.
